Experimental data as given in PubChem BioAssay (NCATS).
This is one part of the list. The main result of the screen is listed elsewhere. These columns were measured beside it and carry no call. The list favours compounds with an active or inconclusive main result. The note in brackets gives the kind of curve behind each potency; many fits are weak.

Test: qHTS Assay for Lipid Storage Modulators (AID 1519)
Conditions: Drosophila S3 cells, BODIPY lipid droplet/cell ratio, laser cytometry, cells loaded with oleic acid
Summary of the method: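 Cells seeded at 5,000 per well were treated with compounds over a concentration series and loaded with oleic acid (400 uM, as added). Lipid droplet fluorescence (488 nm excitation, 500-530 nm channel) was read by laser-scanning cytometry and normalized to 20 uM Triacsin C.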

[1] = measured here: cell count channel max response
[2] = measured here: cell number channel AC50
[3] = measured here: lipid (BODIPY) channel AC50
[4] = measured here: lipid channel max response
Tags describe the fitted curve by direction and shape.

With `COc1ccccc1-c1oc2ccccc2c(=O)c1O` the max response [1] was 76.2%, the AC50 [2] was 31.6 µM [rising, partial curve] and the AC50 [3] was 31.6 µM [rising, partial curve]. It also gave a max response [4] of 102%.
For `COCCn1c(=O)c(-c2cn(C)c3ccccc23)nc2cnc(Oc3ccccc3)nc21`, the max response [1] was 27.3%, the AC50 [2] was 0.0794 µM [rising, full curve, poor fit] and the AC50 [3] was 0.224 µM [rising, partial curve]. It also gave a max response [4] of 17.8%.
In the case of `COc1ccc(NC(=O)N2CCC3(CC2)CCN(C(=O)c2ccncc2)CC3)cc1`, the max response [1] is reported as 31%, the AC50 [2] is reported as 0.316 µM [rising, full curve, poor fit] and the AC50 [3] is reported as 1 µM [rising, partial curve]. The max response [4] was 44.3%.
For `O=c1c(-c2cccc(F)c2)nc2cncnc2n1-c1ccccc1`, the max response [1] was 20.2%, the AC50 [2] was 0.0891 µM [rising, full curve, poor fit] and the AC50 [3] was 0.0891 µM [rising, full curve]. It also gave a max response [4] of 29.4%.
For `COc1cc2c(cc1OC)C(=O)N(C)CC2`, the max response [1] was 49.9%, the AC50 [2] was 35.5 µM [rising, partial curve, poor fit] and the AC50 [3] was 35.5 µM [rising, partial curve, poor fit]. The max response [4] was 67.3%.
With `COc1ccccc1CNc1cc(-c2cccnc2)ncn1` the max response [1] was 23%, the AC50 [2] was 0.0141 µM [rising, full curve, poor fit] and the AC50 [3] was 0.01 µM [rising, full curve, poor fit]. For the same molecule, the max response [4] was 25.7%.
With `COc1ccc(-c2oc3cc(OC)c(OC(C)=O)c(OC)c3c(=O)c2OC)cc1OC(C)=O` the max response [1] was 61%, the AC50 [2] was 2.51 µM [rising, full curve] and the AC50 [3] was 2.51 µM [rising, full curve]. The max response [4] was 67.1%.
For `CN(C)C(=O)c1ccc(-c2cncnc2-n2ccnc2)cc1`, the max response [1] was 30.3%, the AC50 [2] was 10 µM [rising, partial curve] and the AC50 [3] was 10 µM [rising, partial curve]. The max response [4] was 41.6%.
In the case of `N#CCCn1c(=O)c(-c2cc(F)cc(F)c2)nc2cnc(OCc3ccccc3)nc21`, the max response [1] is reported as -1.83%, the AC50 [2] is reported as 2.51 µM [rising, partial curve, poor fit] and the AC50 [3] is reported as 1 µM [rising, partial curve, poor fit]. The max response [4] was 0.543%.
With `CC(=O)NCCNc1nc(-c2ccc(C(=O)N(C)C)cc2)nc2ccccc12` the max response [1] was 33.4%, the AC50 [2] was 1.58 µM [rising, full curve, poor fit] and the AC50 [3] was 1.26 µM [rising, full curve]. The max response [4] was 43.8%.
For `CCNc1ncc2nc(-c3ccccc3)c(=O)n(CCC#N)c2n1`, the max response [1] was 10.3%, the AC50 [2] was 0.398 µM [rising, partial curve] and the AC50 [3] was 0.282 µM [rising, partial curve]. The max response [4] was 15.4%.
In the case of `CNc1ccnc(-c2ccccc2C)n1`, the max response [1] is reported as 32.6%, the AC50 [2] is reported as 8.91 µM [rising, full curve, poor fit] and the AC50 [3] is reported as 8.91 µM [rising, partial curve, poor fit]. The max response [4] was 40.8%.
For `CN1CCc2cc3c(cc2[C@@H]1[C@@H]1C(=O)Oc2c1ccc1c2OCO1)OCO3`, the max response [1] was 73.7%, the AC50 [2] was 14.1 µM [rising, partial curve, poor fit] and the AC50 [3] was 15.8 µM [rising, partial curve, poor fit]. For the same molecule, the max response [4] was 98.2%.
With `CS(=O)(=O)Nc1cccc(-c2nc(-n3ccnc3)c3ccccc3n2)c1` the max response [1] was 30.5%, the AC50 [2] was 0.794 µM [rising, full curve, poor fit] and the AC50 [3] was 2.24 µM [rising, full curve, poor fit]. It also gave a max response [4] of 36.5%.
With `COc1cc(N)c(Cl)cc1C(=O)N[C@H]1CCN(CCCOc2ccc(F)cc2)C[C@@H]1OC` the max response [1] was 111%, the AC50 [2] was 11.2 µM [rising, partial curve, poor fit] and the AC50 [3] was 14.1 µM [rising, partial curve, poor fit]. For the same molecule, the max response [4] was 143%.
In the case of `COc1ccccc1-c1ccc2ncnc(N3CCNCC3)c2c1`, the max response [1] is reported as 38.4%, the AC50 [2] is reported as 0.794 µM [rising, partial curve] and the AC50 [3] is reported as 0.224 µM [rising, full curve]. The max response [4] was 39.3%.
In the case of `COc1cc2c(cc1OC)-c1c(OC)c(OC)cc3ccnc(c13)C2=O`, the max response [1] is reported as 74.5%, the AC50 [2] is reported as 0.316 µM [rising, full curve, poor fit] and the AC50 [3] is reported as 0.112 µM [rising, full curve, poor fit]. The max response [4] was 66.4%.
With `Clc1ccccc1-c1nc(NCc2cccnc2)c2ccccc2n1` the max response [1] was 30.2%, the AC50 [2] was 0.1 µM [rising, full curve] and the AC50 [3] was 0.112 µM [rising, full curve]. For the same molecule, the max response [4] was 34.6%.
With `CCCCCCCCCCCCCCCC[N+](C)(C)CCN(Cc1ccc(OC)cc1)c1ncccn1` the max response [1] was -52.2%, the AC50 [2] was 15.8 µM [falling, single point] and the AC50 [3] was 15.8 µM [falling, partial curve, poor fit]. The max response [4] was -95.8%.
With `CNCC(O)c1cccc(O)c1` (configuration not stated) the max response [1] was 30.8%, the AC50 [2] was 25.1 µM [rising, partial curve, poor fit] and the AC50 [3] was 39.8 µM [rising, single point]. It also gave a max response [4] of 47.7%.
In the case of `COC1=CC(=O)CC(C)C12Oc1c(Cl)c(OC)cc(OC)c1C2=O` (configuration not stated), the max response [1] is reported as 88.5%, the AC50 [2] is reported as 14.1 µM [rising, partial curve] and the AC50 [3] is reported as 14.1 µM [rising, partial curve]. The max response [4] was 115%.
With `CN1CCN(c2cc(-c3ccccc3Cl)ncn2)CC1` the max response [1] was 30.7%, the AC50 [2] was 6.31 µM [rising, partial curve, poor fit] and the AC50 [3] was 12.6 µM [rising, partial curve, poor fit]. The max response [4] was 38.1%.
In the case of `CN(C)c1ccc(-c2cncnc2NCc2cccnc2)cc1`, the max response [1] is reported as 20.9%, the AC50 [2] is reported as 0.0282 µM [rising, full curve] and the AC50 [3] is reported as 0.0224 µM [rising, full curve]. The max response [4] was 27.1%.
